# Results published in the supplement of paper PMC3334620.
# Whole data set: some 33,000 sequences, median “E-score (-0.5 to 0.5)” near -0.021, cut for the highest 2% near 0.32. The list shows a part of the results.
# Biological target: T1, Zap1 (UniProt P47043)
# T1 sequence: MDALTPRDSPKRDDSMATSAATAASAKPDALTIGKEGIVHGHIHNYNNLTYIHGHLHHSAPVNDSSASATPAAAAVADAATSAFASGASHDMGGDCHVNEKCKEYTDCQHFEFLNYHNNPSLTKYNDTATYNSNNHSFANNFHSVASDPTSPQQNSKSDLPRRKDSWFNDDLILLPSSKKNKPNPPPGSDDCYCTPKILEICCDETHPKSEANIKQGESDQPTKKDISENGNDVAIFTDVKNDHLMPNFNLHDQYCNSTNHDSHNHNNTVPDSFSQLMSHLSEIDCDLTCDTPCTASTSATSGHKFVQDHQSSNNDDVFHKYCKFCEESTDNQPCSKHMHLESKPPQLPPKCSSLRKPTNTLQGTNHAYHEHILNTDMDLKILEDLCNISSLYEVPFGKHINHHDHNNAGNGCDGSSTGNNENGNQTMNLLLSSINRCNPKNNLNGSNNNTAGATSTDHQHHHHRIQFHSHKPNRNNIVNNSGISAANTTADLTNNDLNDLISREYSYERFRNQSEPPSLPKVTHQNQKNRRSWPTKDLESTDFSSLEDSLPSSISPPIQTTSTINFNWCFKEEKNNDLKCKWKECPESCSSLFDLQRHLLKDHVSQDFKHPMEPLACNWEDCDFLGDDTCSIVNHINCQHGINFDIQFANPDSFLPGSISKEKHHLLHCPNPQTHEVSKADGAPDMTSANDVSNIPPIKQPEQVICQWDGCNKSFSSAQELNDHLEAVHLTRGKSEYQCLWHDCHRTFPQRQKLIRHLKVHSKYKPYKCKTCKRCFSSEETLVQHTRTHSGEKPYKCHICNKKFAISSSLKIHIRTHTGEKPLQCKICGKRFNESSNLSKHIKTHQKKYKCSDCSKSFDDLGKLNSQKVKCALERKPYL
# Assay: PBM E-score (8-mer binding enrichment) (E-score (-0.5 to 0.5)); higher = stronger / more preferred TF binding; most listed sequences are background and not binding sites
# Conditions: protein concentration: 200 nM; construct: GST-full length
# Method in brief: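 Yeast transcription factors, full-length or as DNA-binding domains, were expressed with a GST tag using PURExpress in vitro transcription/translation. At about 100-200 nM they were applied to universal all-10-mer Agilent arrays, double-stranded by primer extension on fresh or once-stripped slides. Fluorescent anti-GST detected bound protein, and masliner normalised the scans. E-scores for ungapped eight-base words, pooled with reverse complements, came from the Universal PBM Analysis Suite.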
row,Sequence,PBM E-score
1,CCGTTTTC,0.0524
2,CCCCTGTC,-0.216
3,ATAATATG,0.12
4,ACCTTGTA,0.286
5,CACGAAAA,0.101
6,GATCCCTA,-0.116
7,GTCGGTGA,-0.312
8,CAAAACTA,0.094
9,AAGCTGCC,-0.266
10,AATCCTCA,-0.0702
11,CGCTATCA,-0.078
12,AAATAGCG,0.0695
13,CAACCGTA,0.0143
14,GGATCGAA,-0.11
15,GACGCACC,-0.0172
16,CCGAGAAC,-0.00423
17,ACGCTGCA,-0.171
18,AGGATCCA,-0.0568
19,CCTCACCC,-0.07
20,GCTCTCAC,-0.235
21,AAGCTCAT,-0.269
22,ATATCGTC,0.0354

row,Sequence,PBM E-score
1,GCAAATCA,-0.0339
2,AACGCTAC,-0.13
3,AACCTCTT,0.397
4,AAGTCCGC,-0.054
5,CTCCGCTA,-0.239
6,GCTACCGA,0.0886
7,CGCCTGCC,-0.379
8,ACAGAACG,-0.211
9,AGGTCCGG,0.0109
10,TGGGCAAA,-0.08
11,CGACTCCG,-0.392
12,ACGCGTTC,-0.105
13,AAATAATC,0.0737
14,CTAAAATA,0.093
15,AAAGCGCA,-0.174
16,GAGCCATC,-0.232
17,CCCTCCCG,-0.042
18,CCACGAAA,0.0425
19,ATGAAAGA,0.0644
20,CATGCCAA,-0.0416
21,TTACTCAA,0.0202
22,AACTCCCG,-0.0817

row,Sequence,PBM E-score
1,ACTCGGCC,-0.16
2,CTTCCCCC,-0.442
3,ATGCATAC,-0.0129
4,AGTGGTGA,-0.0449
5,AGCCATAG,-0.138
6,CCGGACGC,-0.165
7,ACAAAACA,0.0856
8,CTCACAGA,0.0413
9,GTTATAAA,0.279
10,ATGTAGTG,-0.0999
11,AGTTGCAG,-0.109
12,AAGACTTG,-0.0315
13,GTTAGTAA,0.171
14,CTGCGCCC,-0.327
15,ACTTGATA,0.0341
16,CCTTTACC,0.108
17,CGATTGCG,-0.261
18,AAGTAATG,0.0586
19,AGTTCGCC,-0.124
20,ATGTGGCA,-0.218
21,AATGCTAG,-0.264
22,CGGACGGC,-0.269

row,Sequence,PBM E-score
1,AAGCGATA,0.004
2,CGGAGATC,-0.289
3,CAACTCTA,-0.0743
4,TATGATGA,0.0587
5,GTCAATAA,0.0959
6,ACCTTATG,0.314
7,CGCTACAA,-0.0268
8,GCGGGCGA,-0.105
9,AAGTTTTG,0.161
10,CGAAACGA,0.0447
11,CAGTCGGA,-0.131
12,ATAGATGC,-0.23
13,AGATCTAC,0.0129
14,GACCCGTA,0.212
15,CTTGGTTA,0.334
16,CTACTAAA,0.0351
17,CTGAGTGC,-0.134
18,CCGGGCCA,-0.0147
19,GTAAAGCA,0.063
20,ATAAATAC,0.131
